Out of some 200,000 compounds screened, about 10 (0.005%) were called active. The inconclusive results got no clear call from the source; some entries with a clear call stand among them for comparison. Calls follow the shape of the dose curve; as a rule, active = well fitted inhibition curve with a large enough effect; inconclusive = small, poorly fitted or top-dose-only effect, or effect the other way, or another doubt; inactive = no such curve, though single readings can be large or run the other way. No potency is given beside an inconclusive call; the fits are too rough.
Each compound was assayed against Lysosomal alpha-glucosidase (Homo sapiens) (UniProt P10253) (assay: qHTS Assay for Inhibitors of Human alpha-Glucosidase as a Potential Chaperone Treatment of Pompe Disease). Details: purified human GAA, 4-MU-alpha-glucoside fluorescence; activity change, negative = inhibition: at 76.9 µM (top of the series) unless noted.
Procedure, shortened: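 Read-out is 4-methylumbelliferone fluorescence (Ex 365/Em 440 nm) after NaOH/glycine stop at pH 10. Enzyme 4 nM, substrate 400 uM, pH 5.0 citrate buffer, 20 min room temperature; AC50 from Hill-equation concentration-response.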
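For activity change, negative = inhibition in this document: plate controls were uninhibited enzyme wells for no effect and no-enzyme background for full effect.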
Potency is read from the fitted curve at half-maximal effect; tags tell the direction and shape of the fitted curve.

Row | SMILES | Potency | activity change, negative = inhibition
1 | O=C(CCN1C(=O)c2ccccc2C1=O)Nc1ccc(S(=O)(=O)NC2=NCCCCC2)cc1 | inconclusive [inhibitor, partial curve, poor fit] | 
2 | CN1CCN(C(=O)/C(=C\c2cccc([N+](=O)[O-])c2)NC(=O)c2cccs2)CC1 |  | inconclusive: 16.8% [activator]
3 | N=C1/C(=C/c2cccn2-c2cccc([N+](=O)[O-])c2)C(=O)N=C2SC=CN12 | inconclusive [inhibitor, partial curve] | 
4 | CCC(C)NC(=O)C1CCC(=O)N1Cc1ccc(C)cc1 (stereo unspecified) | inconclusive [inhibitor, single point] | 
5 | O=C(/C=C/c1ccnc2ccccc12)c1cccs1 |  | inconclusive: 4.13% [activator]
6 | Cc1ccccc1NC(NC(=O)c1cccs1)C(Cl)(Cl)Cl (stereo unspecified) | inconclusive [inhibitor, partial curve] | 
7 | COc1cccc(-c2cc3nc(-c4ccccc4)cc(N4CCCC(O)C4)n3n2)c1 (stereo unspecified) | inconclusive [activator, full curve, poor fit] | 
8 | CCc1cc2c(=O)n(Cc3ccco3)c(SCC(=O)N3CCCc4ccccc43)nc2s1 | inconclusive [inhibitor, partial curve, poor fit] | 
9 | CCc1ccc(CCC(=O)Nc2ccc(OC)cc2)o1 |  | inconclusive: -15.1% [inhibitor]
10 | N/C(=N\OC(=O)c1ccc2ccccc2c1)c1cccc([N+](=O)[O-])c1 | inconclusive [inhibitor, full curve] | 
11 | Cn1c(SC2CCCCC2=O)nnc1-c1ccncc1 (stereo unspecified) | inconclusive [inhibitor, full curve, poor fit] | 
12 | O=C(O)c1ccccc1NCCO |  | inconclusive: 15.6% [activator]
13 | CCOC(=O)C1=C(N)OC2=C(C(=O)CCC2)C1c1ccccc1OC (stereo unspecified) |  | inconclusive: 12.3% [activator]
14 | Cc1ccc(S(=O)(=O)N(CC(=O)NCc2cccnc2)C2CCCCC2)cc1 |  | inconclusive: 15.4% [activator]
15 | CCCCn1c(NC(=O)CC)c(C#N)c2nc3ccccc3nc21 | inconclusive [activator, partial curve, poor fit] | 
16 | C=CCOC(=O)C1=C(C)N=C2SCCC(=O)N2C1/C=C/c1ccccc1OC (stereo unspecified) | inconclusive [inhibitor, partial curve, poor fit] | 
17 | COc1cc(-c2nnc(COc3ccc4ccccc4c3)o2)cc(OC)c1OC | inconclusive [inhibitor, full curve] | 
18 | O=C(Nc1ccccc1-c1ccccc1)NC1CC2CCCC(C1)N2Cc1ccc(F)cc1 (stereo unspecified) |  | inconclusive: 16.7% [activator]
19 | Cn1ncc(C#N)c1/N=C/N(Cc1ccccc1)Cc1ccccc1 |  | inconclusive: -19.8% [inhibitor]
20 | COc1ccc(CN2CCN(S(=O)(=O)c3ccc(NC(C)=O)cc3)CC2)c(OC)c1OC | inconclusive [inhibitor, single point] | 
21 | CCOC(=O)C1CCN(C(c2cc3c(C)ccc(C)c3[nH]c2=O)c2nnnn2C2CCCCC2)CC1 (stereo unspecified) | inconclusive [inhibitor, single point] | 

Row | SMILES | Potency | activity change, negative = inhibition
22 | COc1ccc(-c2nc3c(c(=O)c4ccccc4n3C)c(=O)n2Cc2ccccc2)cc1 | inconclusive [inhibitor, single point] | 
23 | COc1cccc(NC(=O)CNC(=O)c2ccc(C)cc2)c1 | inconclusive [inhibitor, single point] | 
24 | COc1ccc(CCN2CN(S(=O)(=O)c3ccccc3)c3nc4ccccc4nc32)cc1 | inconclusive [inhibitor, full curve] | 
25 | CCOC(=O)/C(C#N)=C/Nc1cc(C(=O)OCC)cc2c(OC)c(OC)ccc12 | inconclusive [activator, single point] | 
26 | CCOC(=O)CC1NC(=O)c2ccccc21 (stereo unspecified) |  | inconclusive: 16% [activator]
27 | CCOc1cc(/C=N/NC(=O)NN(C)c2ncc(C(F)(F)F)cc2Cl)ccc1O | inconclusive [inhibitor, single point] | 
28 | Cc1ccc(S(=O)(=O)NC(=O)N2CCCN(Cc3ccc(F)cc3)CC2)cc1 |  | inactive: 1.35%
29 | Cc1cccc(OCC2CCCN(Cc3nc(C4CC4)no3)C2)c1 (stereo unspecified) |  | inconclusive: 14.8% [activator]
30 | CCSc1nc(C)c(C(C)=O)cc1C#N | inconclusive [inhibitor, single point] | 
31 | CNC(=S)N(Cc1ccco1)Cc1cc2cc(OC)c(OC)cc2[nH]c1=O | inconclusive [activator, partial curve] | 
32 | COc1ccc(NC(=O)CSc2nc3ccccc3c(=O)n2CCNC(C)=O)cc1 | inconclusive [inhibitor, single point] | 
33 | COc1ccc(OC)c(Nc2nc(-c3sc(N)nc3C)cs2)c1 | inconclusive [inhibitor, partial curve] | 
34 | CC12CC3CC(C)(C1)CC(C(=O)NC1=NCCS1)(C3)C2 | inconclusive [inhibitor, single point] | 
35 | CC1(C)Cc2ccccc2C(=C(C#N)C#N)N1 | inconclusive [inhibitor, single point] | 
36 | O=C(Cc1c[nH]c2ccccc12)N/N=C/c1ccccc1O | inconclusive [activator, partial curve] | 
37 | Cc1cc(C)c2c(n1)nn1c(N3CCN(Cc4ccccc4)CC3)cc(C)nc21 | inconclusive [activator, partial curve] | 
38 | CCOc1ccc(S(=O)(=O)NC2CCCCCC2)cc1 | inconclusive [inhibitor, single point] | 
39 | CCCOc1ccc(C(=O)Nn2c(C)nc3ccccc3c2=O)cc1 |  | inconclusive: 18.4% [activator]
40 | COC(=O)C1=C(C)OC(N)=C(C#N)C1c1ccccc1 (stereo unspecified) |  | inactive: -4.33%
41 | c1ccc(-c2c(-c3ccccc3)n(Cc3ccco3)c3ncnc(NCCCn4ccnc4)c23)cc1 | inconclusive [inhibitor, partial curve] | 
